Data reported in PubChem BioAssay AID624417 (National Center for Advancing Translational Sciences (NCATS), 2012).
Out of some 410,000 compounds screened, about 6,400 (1.6%) were called active. Inconclusive results, whose numbers are uncertain, are shown with a selection of clear calls. The call rests on the fitted dose curve; in most records, active means well fitted inhibition curve with a large enough effect; inconclusive means small, poorly fitted or top-dose-only effect; inactive means no such curve, though single readings can be large or run the other way. Potencies of inconclusive entries are left out as doubtful fits.

target: Glucagon-like peptide 1 receptor (Homo sapiens) (UniProt P43220); experiment: qHTS of GLP-1 Receptor Inverse Agonists (Inhibition Mode); conditions: HEK293 GLP-1R CRE-luciferase, luminescence, 24 h, GLP-1R form is constitutively active; series mostly up to 38.3 µM; further: nearly all actives have a fitted effect of over 55% in size
UniProt P43220, sequence (P43220 whole entry, looked up): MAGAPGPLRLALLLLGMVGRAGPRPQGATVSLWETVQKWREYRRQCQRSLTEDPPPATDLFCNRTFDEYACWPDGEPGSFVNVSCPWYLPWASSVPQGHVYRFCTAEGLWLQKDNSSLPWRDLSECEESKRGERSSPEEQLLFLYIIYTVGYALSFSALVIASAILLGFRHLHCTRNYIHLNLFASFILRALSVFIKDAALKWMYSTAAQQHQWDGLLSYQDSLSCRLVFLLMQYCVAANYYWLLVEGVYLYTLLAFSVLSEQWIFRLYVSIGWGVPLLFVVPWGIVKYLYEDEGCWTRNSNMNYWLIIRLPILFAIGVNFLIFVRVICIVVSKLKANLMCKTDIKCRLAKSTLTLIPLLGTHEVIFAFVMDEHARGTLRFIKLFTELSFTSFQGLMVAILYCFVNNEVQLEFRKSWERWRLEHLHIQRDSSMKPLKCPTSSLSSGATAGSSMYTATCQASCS
In short: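 Cells are plated, allowed 12 hours at 37 deg C, then treated with compounds for 24 hr before luciferase detection reagent is added and luminescence is read after 12 min at room temperature. The HEK293 line carries constitutively active GLP-1R with a cAMP-responsive reporter.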
Potency means the concentration at half of the fitted maximal effect; tags describe the fitted curve by direction and shape.

Row | Structure (SMILES) | Potency
1 | O=C(c1cccc(Cl)c1)n1nc(-c2cccnc2)nc1NCc1ccccc1 | inactive
2 | CCCCc1ccc(/C=C(\C#N)C(N)=S)s1 | inconclusive [inhibitor, partial curve, poor fit]
3 | Cc1ccc(S(=O)(=O)c2nc(-c3cccs3)oc2SC(C)C)cc1 | inconclusive [inhibitor, single point]
4 | CCC1=Nc2cc(C(=O)NCc3ccco3)ccc2Sc2ccc(Cl)cc21 | inconclusive [inhibitor, partial curve, poor fit]
5 | COc1ccc2c(Sc3ccc(Cl)cc3)c(C(=O)N3CCC(C)CC3)[nH]c2c1 | inconclusive [inhibitor, single point]
6 | COc1cc(CC(=O)Nc2ccc(Cl)c(C(F)(F)F)c2)cc(OC)c1OC | inconclusive [inhibitor, single point]
7 | CC1=C(C(=O)OC(C)C)C(c2ccccc2Cl)CC(=O)N1 (configuration not stated) | inconclusive [inhibitor, partial curve, poor fit]
8 | CC(C)C[C@H]1CNC(=S)N1C[C@H]1CCCN1C[C@H](Cc1ccccc1)N1C[C@H](Cc2ccc(O)cc2)N(CCc2ccccc2)C1=S | inconclusive [inhibitor, single point]
9 | Cc1ccc(CCN2C(=O)CCC2(C)C(=O)NCc2cccnc2)cc1 (configuration not stated) | inconclusive [inhibitor, single point]
10 | Cc1ccccc1C(=O)Nc1ccccc1C(=O)NCc1ccccc1 | inconclusive [inhibitor, full curve, poor fit]
11 | O=C(Nc1ccccc1)C1C2/C=C\CCCCC21 (configuration not stated) | inconclusive [inhibitor, single point]
12 | O=C(NCCc1ccc(Cl)cc1)C1COc2ccccc2C1 (configuration not stated) | inconclusive [inhibitor, partial curve, poor fit]
13 | COc1ccc(Cl)cc1NC(=O)CN(C)C(=O)c1ccc(N2CCCCCC2)c([N+](=O)[O-])c1 | inconclusive [inhibitor, partial curve, poor fit]
14 | CCOC(=O)c1c(C)oc2c1c(CN1CCN(CCO)CC1)c(O)c1ccccc12 | inconclusive [inhibitor, partial curve, poor fit]
15 | CCOC(=O)c1c(C)cc2c(CO)n[nH]c(=O)c2c1C | inactive
16 | Cn1cccc1-c1nc2ccccc2n1Cc1ccccc1 | inconclusive [inhibitor, partial curve, poor fit]
17 | CC(=O)Nc1ccc(S(=O)(=O)Oc2ccc(C(=S)N3CCCCC3)cc2)cc1 | inconclusive [inhibitor, single point]
18 | COc1ccccc1NC(=O)CSc1oc(-c2ccccc2)nc1S(=O)(=O)c1ccc(C)cc1 | inactive
19 | CCOC(=O)c1cn2nc(N3CCCCC3)ccc2n1 | inconclusive [inhibitor, partial curve, poor fit]
20 | O=C(CSc1c2c(nc3cc(Cl)ccc13)CCCC2)N1CCN(c2ccccc2F)CC1 | inconclusive [inhibitor, single point]
21 | COc1ccc(/C=C/c2cc(O)cc(OC3OC(CO)C(O)C(O)C3O)c2)cc1 (configuration not stated) | inconclusive [inhibitor, partial curve, poor fit]

Row | Structure (SMILES) | Potency
22 | CN(C)c1ccc(/C=C/C(=O)c2ccc(C(C)(C)C)cc2)cc1[N+](=O)[O-] | inconclusive [inhibitor, partial curve, poor fit]
23 | Cc1cccc(NC(=O)c2ccc(S(=O)(=O)N3CCCCC3)cc2)c1 | inconclusive [inhibitor, partial curve, poor fit]
24 | Cc1noc(C)c1COc1cccc(C(=O)NCCc2c[nH]c3ccccc23)c1 | inconclusive [inhibitor, partial curve, poor fit]
25 | O=C(NNC(=S)NCc1ccco1)c1ccccc1Br | inconclusive [inhibitor, full curve, poor fit]
26 | COCC(=O)OCC(=O)N1N=C(c2ccc(Cl)cc2)CC1c1ccco1 (configuration not stated) | inactive
27 | Cc1c(O)ccc(/C=N/Nc2ncccc2[N+](=O)[O-])c1O | inactive
28 | Sc1nnc(-c2ccc(Cl)cc2)n1Cc1ccccc1 | inconclusive [inhibitor, single point]
29 | C=C(C)CNC(=S)N/N=C/c1ccc([N+](=O)[O-])cc1 | inconclusive [inhibitor, single point]
30 | COc1ccc(C)cc1S(=O)(=O)N1CCN(C(=O)c2ncoc2-c2ccc(C)cc2)CC1 | inconclusive [inhibitor, single point]
31 | COc1cc(NC(=O)N2CCC3(CC2)Nc2ccccc2-n2cccc23)cc(OC)c1OC | inconclusive [inhibitor, partial curve, poor fit]
32 | FC(F)Oc1ccc(NC(=S)NC23CC4CC(CC(C4)C2)C3)cc1 | active: 4.47 µM
33 | CCOc1ccc(/C(CC)=N/NC(=O)C2(C)CC2(Br)Br)cc1 (configuration not stated) | inconclusive [inhibitor, single point]
34 | CCCOC(=O)C(=O)NNc1ccccc1 | inconclusive [inhibitor, full curve, poor fit]
35 | C=CCNC(=S)N1N=C(c2ccco2)CC1c1ccco1 (configuration not stated) | inconclusive [inhibitor, partial curve, poor fit]
36 | Cc1cc(C)cc(NC(=O)Cn2nnc(C(=O)NCc3cccs3)c2N)c1 | inconclusive [inhibitor, full curve, poor fit]
37 | Cc1cccc(OCc2nnc(SCC(=O)c3cccs3)n2C)c1C | inconclusive [inhibitor, partial curve, poor fit]
38 | CCOC(=O)/C(=C/C=C1\Sc2cc(OCC)c(OCC)cc2N1CC)C(C)=O | inactive
39 | COc1ccc(-c2noc(-c3ccc(NCC4CCCO4)c([N+](=O)[O-])c3)n2)cc1 (configuration not stated) | inactive
40 | CNC(=O)c1c(NC(=O)Cc2coc3ccc(C)cc23)sc2c1CCCC2 | inconclusive [inhibitor, partial curve, poor fit]
41 | CCOc1cc(N2CCOCC2)c(OCC)cc1NC(=O)Cc1ccccc1 | inconclusive [inhibitor, single point]
42 | COc1ccc(Cn2cc(F)c(=O)n(C)c2=O)cc1[N+](=O)[O-] | inconclusive [inhibitor, single point]

Row | Structure (SMILES) | Potency
43 | Cc1nc2cc(NC(=O)Nc3ccc(Br)cc3)ccc2o1 | inconclusive [inhibitor, partial curve, poor fit]
44 | O=C(c1cc(COc2c(F)cccc2F)on1)N1CCc2ccccc2C1 | inconclusive [inhibitor, partial curve, poor fit]
45 | CCOc1ccccc1NC(=O)CSc1ncc(S(=O)(=O)c2ccc(C)c(C)c2)c(N)n1 | inactive
46 | CCOC(=O)N1CC=C2C(C#N)=C(N)C(C#N)(C#N)[C@H](c3ccccc3OCC)[C@H]2C1 | inactive
47 | CCc1cc(C(=O)NNC(=S)NC2CCCCC2)cs1 | inconclusive [inhibitor, single point]
48 | Cc1cc(C)n(-c2ccc(C(=O)N3CCN(S(=O)(=O)c4cccc(Br)c4)CC3)cc2)n1 | inconclusive [inhibitor, single point]
49 | Cc1ccc(C(=O)NC(=S)Nc2ccc3c(c2)OCCO3)c(C)c1 | inconclusive [inhibitor, partial curve, poor fit]
50 | CC12CC(NC(=O)N1c1ccc(C(=O)N3CCN(c4ccc(F)cc4)CC3)cc1)c1ccccc1O2 (configuration not stated) | inconclusive [inhibitor, full curve]
51 | CCOC(=O)c1ccccc1NC(=O)Cn1c(=O)n(CCCC(=O)NCc2ccc3c(c2)OCO3)c(=O)c2ccccc21 | inactive
52 | Cc1cccc(OCCNC(=O)c2cccc(Oc3ccc(C(F)(F)F)cc3[N+](=O)[O-])c2)c1 | active: 2.51 µM
53 | Cc1ccc(Cl)cc1N1CCN(C(=O)CCS(=O)(=O)c2cccc3nonc23)CC1 | inconclusive [inhibitor, single point]
54 | CCCCOc1cc(C(=O)OCCN(CC)CC)ccc1N | inconclusive [inhibitor, partial curve, poor fit]
55 | Cn1cnc([N+](=O)[O-])c1Sc1nc2ccccc2[nH]1 | inconclusive [inhibitor, single point]
56 | COc1cccc(-c2csc(-c3c(N)c(C(=O)c4ccccc4)n4ccccc34)n2)c1 | inactive
57 | CN(c1ccccc1)S(=O)(=O)c1cc(C(=O)Nc2ccccc2N2CCOCC2)ccc1Cl | inconclusive [inhibitor, single point]
58 | Cc1c(C(=O)OCC(=O)NCCN2C(=O)CSC2=O)oc2c1ccc1ccccc12 | inactive
59 | O=C(c1ccc2c(c1)OCO2)C1CCCN(Cc2cccn2-c2cccnc2)C1 (configuration not stated) | inconclusive [inhibitor, partial curve, poor fit]
60 | CCN(C(=O)COc1ccc(C)cc1OC)c1cccc2ccccc12 | inconclusive [inhibitor, single point]
61 | O=C1[C@H]2[C@@H]3CCN1CCC[C@@H]2C=C[C@@H]3c1ccc(Br)cc1 | inconclusive [inhibitor, partial curve, poor fit]
62 | CC(C)c1cc(C(=O)NNC(=S)NCc2ccco2)c(O)c(C(C)C)c1 | inconclusive [inhibitor, partial curve]
